In US12325690B2, “Compounds for the reducing lipotoxic damage” (Mayo Foundation for Medical Education and Research, priority 2017, dated 2025):

How the values were obtained:
[1] = tested on: acinar cells in acinar-adipocyte co-culture; settings: 66 micromolars
pancreatic lysate lipase [2] = test: Lipase activity assay with pancreatic lysate (commercial Pointe scientific lipase assay); assay type: biochemical, mouse; settings: freshly prepared solutions; compared with parent 741
Protocol: (§1) To test the efficacy of these compounds, the agents were dissolved as a 20 mM stock in ethanol, and further diluted to in PBS as a 600 micromolar working stock (3.3% ethanol). This was either used immediately or left at room temperature for 16-20 hours overnight before retesting efficacy. The agents were incubated with a pancreatic lysate in serial ⅓ dilutions spanning a range of 200 to 0.3 micromolars for 30 minutes. 5 microliters of these mixtures were then used to measure lipase activity using a commercial lipase assay (Pointe scientific) containing a monoacyl glycerol lipase in the reagent. The lipase assay was done using reagents in proportion to the recommended protocol. Values were depicted as % maximal lipase activity of the well without any inhibitor.

pancreatic lysate lipase [3] = target: T1, pancreatic lysate lipase (Mus musculus, UniProt Q6P8U6); test: as above; assay type: biochemical; settings: solution stored overnight at room temperature
T1 construct: efficacy against mouse pancreatic lysates; other: summary of strengths of 767; efficacy as a solution when left overnight; other: solution left overnight; efficacy in the lipase activity assay compared with orlistat when fresh; other: fresh solution; IC50 of orlistat after overnight incubation (nearest tested concentration); other: after overnight incubation; improvement in stability and e
T1 sequence (Q6P8U6 17-465): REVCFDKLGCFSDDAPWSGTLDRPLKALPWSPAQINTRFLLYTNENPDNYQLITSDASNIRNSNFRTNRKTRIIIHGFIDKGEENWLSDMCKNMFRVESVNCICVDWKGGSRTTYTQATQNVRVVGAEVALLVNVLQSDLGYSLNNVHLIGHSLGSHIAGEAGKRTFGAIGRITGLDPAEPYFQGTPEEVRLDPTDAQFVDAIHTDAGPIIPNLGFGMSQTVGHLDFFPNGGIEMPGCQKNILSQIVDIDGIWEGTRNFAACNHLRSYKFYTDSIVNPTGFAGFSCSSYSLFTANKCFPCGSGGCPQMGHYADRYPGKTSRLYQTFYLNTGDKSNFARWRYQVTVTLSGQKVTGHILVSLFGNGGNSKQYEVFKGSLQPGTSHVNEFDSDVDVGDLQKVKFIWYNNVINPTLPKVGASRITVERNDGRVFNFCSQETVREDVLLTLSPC
Protocol: as §1

| SMILES | toxicity to acinar cells [1] | efficacy in reducing lipotoxic damage to acinar cells ([1]; acinar-adipocyte co-culture) | lipase inhibition efficacy of β-chain analogs of 741 (pancreatic lysate lipase [2]) | improvement in stability and efficacy over orlistat after overnight storage (pancreatic lysate lipase [3]) |
| --- | --- | --- | --- | --- |
| CCCCCCCCCCC[C@@H](C[C@@H]1OC(=O)[C@H]1CCCCCC)OC(=O)[C@H](COC=O)NC=O [Compound 736] | low toxicities | retained its efficacy |  |  |
| CC=CCCC(CC1OC(=O)[C@H]1CCCCCC)OC(=O)[C@H](C)NC=O (some centres unmarked) [Compound 760] |  |  | decrease in efficacy |  |
| CCCCCCCCCCC[C@@H](C[C@@H]1OC(=O)[C@H]1CCCCCC)OC(=O)[C@H](CC(=O)O)NC=O [Compound 743] | toxic to acinar cells |  |  | approximately 10 fold |
